Experimental data as given in PubChem BioAssay (NCI).
The source holds several records for some structures; these can differ, active in one and inactive in another.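 Cells were grown in 96-well plates and exposed to the test compound at a single concentration for 48 hours; results are reported as percent growth, with values below 10 considered active.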 Certain results were filed several times, with different values. The other results are left out here. There may be further records. For part of these data: This drug was run again and again over the years, at its own concentration, as given; each value is one run. Counts like (3×) count equal records among those shown. Entries with a single value are a further part of the results. Active and inactive are the calls of the source.

Columns and labels:
ACHN renal = experiment: NCI-60 one-dose screen, 48 h (100 = growth as untreated, 0 = no growth, -100 = all killed)
CAKI-1 renal = experiment: as above; conditions: 0.25 µM

For `COc1cccc2c1C(=O)c1c(O)c3c(c(O)c1C2=O)C[C@@](O)(C(=O)CO)C[C@@H]3OC1CC(N)C(O)C(C)O1` (stereo not given in full), the growth (ACHN renal; 0.25 µM, runs of 2021) was “inactive: 33.1, 44.8, 34.4, 35.2, 49.6, 41.7, 49, 35.3, 39.2, 36.2, 39.5, 45, 20.7, 24.4 (2×), 22.8, 22.2 (2×), 22.7, 23.6, 19.9 (2×), 24.5 (2×), 25.3, 32.2, 36, 37, 35, 33.4, 37.9, 43.1, 24.3, 25, 26.9, 31 (2×), 33.3, 40.6, 28.3, 27.1, 31.3, 30.5, 32, 20.1, 26.2, 18.5, 18.4, 25.1, 23.4, 26.1%”, the growth (ACHN renal; 0.25 µM, runs of 2022) was “active: 0.932%, 4.14%, 2.05% and inactive: 26, 31.7, 27.5, 17.9, 32, 37.9, 38.1, 50.5, 31.5, 25.2, 19.2, 46.2, 54.5, 30, 56.5, 43.4, 76.8, 25.9, 26.2, 33.1, 43.8%” and the growth (ACHN renal; 25 µM, runs of 1991) was “active: 1.89, -3.03, 0.416, -6.82, -73.8, -19.5, -9.57, -21.8, -22.8, -6.11, 5.15, 0.695, 6.49, -17.9, -9.89, -3.66%”. The growth (ACHN renal; 25 µM, runs of 1992) was “active: -0.873, -12.3, -26.5 (2×), -13.6, -34.2, -35.3 (2×), 1.11, -27.4, -1.49, -45.1, -40.9, -17.9 (3×), 4.46, -22.9, -29.3, -27.7, -41.1, -9.95, 2.07, -4.9, -40.4, 0.77, -31.3, 5.91, 1.64, -37.7, -15.1, -11 (2×), -12.5 (2×), -9.48, -20.9, -6.98, 2.86, 4.96, -19, -3.71, 4.72, -11.2, -2.99, 2.26, -3.56, -15.4, 3.3, -5.31, -26.6, -9.62, -31.9, -13.5, -32.3, 1.86, -16.2, 0.329, -9.78, -19.2, -14, 5.53, 2.45, -11.5, -33.9, -8.73, 6.02, -37.3, -44.1, -27, -21.9, -17.3 (2×), -16.5, -15.9, -19.9 (2×), -24.6, -10.3 (2×), -21.6 (2×), -44.4, -51.8, -15.8, -28.7, 0.696, 6.93, -23.6, -21.3, -22.2 (2×), -15.6, -26, -0.662, -61.7, 0.414, -20.5, -22.6, -6.71, -14.1, -11.3, -33.5, -37, -28.5, -10, -42.3, -42.1, -27.6, -23.7, -25.9, -22, -31, -23.9% and inactive: 98.8%, 11.9%”, the growth (ACHN renal; 25 µM, runs of 1993) was “active: -13.8 (2×), -10.2, -25.1, -38.1, -14.6, 2.61, 6.43, -22.9, -35, -43.9, 3.47, -2.13, -19.4, -21.8, -30, -30.8, -14.4, -23.4, -6.21, -21.7, -49, -21, -16.7, -16.3, -8.48, -29.9, -5.4, 0.672, 9.39, -1.86, -32.3, -9.86, -13.5, -26.7, -19.8, -5.98, -37.1, -27.5, -38.9, -51.2, -9.41, -27.8, 1.97, -41.4, -5.16% and inactive: 11.8%” and the growth (ACHN renal; 25 µM, runs of 1994) was “inactive: 83.8% and active: -26.2, -41, -6.88, -5.37, -3.43, -21.6, 5, 1.45, 1.74, -24.7, -34.9, -8.86, -34.7, -32.7, -20, -2.29, 0.119, -34.5, -16.6, 7.32, -20.3, -20.2, 4.74, -38.6, 1.99, -26.1, -41.3, 1.4, -10.5, -8.03, -7.92, -10.1%”. For the same compound, the growth (ACHN renal; 25 µM, runs of 1995) was “active: -4.42, -0.783, -22.3 (2×), 2.48, -30, -39.6, -18, -18.6, -13.5, -29.8, -20.1, -30.9, -8.72, -3.97, -12.2, -19.4, -21.1, -18.1, -12.5, -26.4, -34.8, -19.6, -41.2, -15.3, -8.95, -25.6 (2×), 7.03, 6.05, -23.9, -40.5, -24.4, -44.5, 1.67, -16.7, -21.7, -23.8, -20.5, -30.1%”, the growth (ACHN renal; 25 µM, runs of 1996) was “active: -30, -22.2, -27.1, -25.2, -45.1, 1.07, -57.1, -7.8, -38.5, -58.3, -47.3, -24.8, -16.2 (2×), -1.81, -50.4, -28.1, 0.764, 6.94, -19.2 (2×), -69.6, -17.1, 9.73, 5.08, 5.61, -38.1, -26.3, -8.05, -14.3, -27.6, -23.7, -3.29, -21.1, -22.4, -9.08, -15.8, 5.52, 8.1, 1.02, -22.5, -43.1, 4.88, -2.5, 5.37, 3.38, -13.2, -38.9, -24, -3, 5.96, 5.19, 6.22, -39.3, -21.7, 2.1% and inactive: 91.8%, 22.8%” and the growth (ACHN renal; 25 µM, runs of 1997) was “active: -13.6, -27.8, 2.19, -22.2, -24.6, 9.25, -38.8, -36.1, 4.92, -20.8, -18.7 (2×), 3.22, 1.63, -5.58, 0.333, -44.8, -41, -23.6, -19.5, -13.5, -20.3, -30.5, 6.05, 2.69, 6.66, 8.39, -10, -34, -10.7, 4.91, 3.29, -22.7, -7.11, 9.68, -4.29, -23.4, -2.71, -45.9, 8.16, -0.18% and inactive: 10.7%”. The growth (ACHN renal; 25 µM, runs of 1998) was “active: -17.5 (2×), -26.8, -28, 1.79, 5.74, -25.2, -24, -44.3, -46.2, -25, -26.4, -10.5, -57, -72.2, -52.7, -26.5, -35.3, -66.5, -21.2, -6.96% and inactive: 11.2%, 12.1%”, the growth (ACHN renal; 25 µM, runs of 1999) was “active: -35.5, -27.7, -37.1, -9.54, -15, -26.9, -100 (5×), -45.7, -61.7, 2.02, -80.5, -1.41, -74.7, 3.61%” and the growth (ACHN renal; 25 µM, runs of 2000) was “active: -100% (2×), -85%, -81.9%”. For the same compound, the growth (CAKI-1 renal; runs of 2006) was inactive: 31.6%, the growth (CAKI-1 renal; runs of 2007) was “inactive: 70.1, 13.1, 62, 56.9, 72.5, 62.4, 75.2, 67.2, 29.7, 26.3, 18.7, 20, 23.6, 20.3, 10.8, 29.9, 39.2, 40.1, 39.7, 47.7, 37, 52.6, 42, 61.4, 63.8, 72.8, 55.6, 56.1, 12.1, 58.2, 58.6, 57.6, 58.4, 50, 64.8, 46, 36.9, 61.9, 54.1, 62.7, 64% and active: -4.16%” and the growth (CAKI-1 renal; runs of 2008) was “inactive: 63.3, 38.7, 54.4, 27.5, 31.7, 31.5, 15, 17.5, 17.9, 22.8, 13, 18.9 (2×), 48.4, 74.7, 58.9, 23.6, 34.5, 16.1, 49.3, 65.9, 46.6, 40.4, 66.9, 59.6, 62.5, 64.2, 63.2, 64.5 (2×), 64.3, 41, 59.3, 56.6, 54.8, 77.3, 53, 61.3, 63.5, 77.7, 20.6, 22.6, 14.3, 33.5, 39.6% and active: -36.8, 2.66, -0.536, -8.01, 8.08%”.
